{
  "source": "patent US6080791A",
  "about": "“Method of treating a viral condition by inhibiting membrane fusion” (priority 1992, dated 2000)",
  "system": "intact virions and their receptors on red blood cell membranes",
  "assay": "Hemagglutination (virus-cell binding)",
  "procedure": "Compounds inhibiting the conformational change of hemagglutinin were tested for their ability to inhibit fusion and infectivity. Assays measuring these processes depend on viral recognition of cellular receptors. To rule out the possibility that any observed inhibition in these experiments is due to inhibition of virus-cell binding, hemagglutination tests were performed with some of the compounds.\nSerial 2-fold dilutions of inoculum in PBS were placed in a 96 well plate with V-shaped wells. An equal volume of 0.5% washed human red blood cells in PBS was added to each. Wells were covered and incubated at 4° C. After 4 hours the last well agglutinated was recorded.\nSerial 2×dilutions of virus were done in a 2×solution of compound/PBS. Addition of the rbcs halved the compound concentration in each well.",
  "data": [
    {"smiles": "Oc1ccc(O)c2ccccc12", "note": "[Compound 110, 1,4-dihydroxynaphthalene]", "values": [
      {"measurement": "effect on hemagglutination", "setting": "1 mM", "result": "no effect on binding"}
    ]},
    {"smiles": "COC(=O)C1C=CCC2C(=O)C=CC(=O)C12", "note": "(centres unmarked) [Compound 97, methyl 5,8-dioxo-1,4,4A,5,8,8A-hexahydro-1-naphthalenecarboxylate]", "values": [
      {"measurement": "effect on hemagglutination", "setting": "0.1 mM", "result": "no effect on binding"}
    ]},
    {"smiles": "O=C1C=CC(=O)C2C3C=CC(C3)C12", "note": "(centres unmarked) [Compound 83K, 4A,5,8,8A-tetrahydro-5,8-methano-1,4-naphthoguinone]", "values": [
      {"measurement": "effect on hemagglutination", "setting": "1 mM", "result": "no effect on binding"}
    ]},
    {"smiles": "CC(C)(C)c1cc(O)ccc1O", "note": "[Compound 117, tert-butylhydroquinone]", "values": [
      {"measurement": "effect on hemagglutination", "setting": "10 μM", "result": "no effect on binding"}
    ]},
    {"smiles": "O=C(O)C1C=CCC2C(=O)C=CC(=O)C12", "note": "(centres unmarked) [Compound 91, 5,8-dioxo-1,4,4A,5,8,8A-hexahydro-1-naphthalene carboxylic acid]", "values": [
      {"measurement": "effect on hemagglutination", "setting": "1 mM", "result": "no effect on binding"}
    ]}
  ]
}
